In all, about 46,000 compounds went through this assay and about 60 (0.1%) were called active. Roughly 3% stayed inconclusive and do not appear here. The call rests on the fitted dose curve; in most records, active means well fitted inhibition curve with a large enough effect; inconclusive means small, poorly fitted or top-dose-only effect; inactive means no such curve, though single readings can be large or run the other way. This is one part of the list.
Assay: Primary qHTS assay for Inhibitors of ovarian cancer metastasis using an organotypic tumor microenvironment (TME) model. Further: nearly all actives have a fitted effect of over 65% in size.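 On activity change, negative = inhibition: plate controls were DMSO wells for no effect and tomatine positive control wells for full effect.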
Details: SKOV3ip1-GFP adhesion/invasion on 3D omental model, fluorescence; series mostly up to 45.8 µM; activity change, negative = inhibition: at the top concentration
In short: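 qHTS, 4-pt dose (0.36-46 umol/L); SKOV3ip1-GFP, 1,200 cells/well, no FBS; primary omental fibroblast/mesothelial co-culture 48 h pre-grown; 2 h RT + 16 h 37 C; PBS wash, 4% PFA; GFP count 488/509 nm.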

Row | Compound | outcome | activity change, negative = inhibition
1 | O=C(CSc1nc2ccccc2nc1Cc1ccc(Cl)cc1)Nc1ccc2c(c1)OCO2 | inactive | 
2 | Cc1ccc2c(=O)cc(C(=O)Nc3ccc(S(=O)(=O)N(C)c4ccccc4)cc3)oc2c1C |  | inactive: 2.22%
3 | COc1ccc(CCNC(=O)CCc2c(C)c3cc4c(C)c(C)oc4cc3oc2=O)cc1OC |  | inactive: -4%
4 | O=C(Cn1ncn2c(cc3sccc32)c1=O)NCCc1ccccc1 |  | inactive: 8.74%
5 | COc1ccccc1-c1nc2n(n1)C(c1ccccc1Cl)C(C(=O)Nc1cccnc1)=C(C)N2 (configuration not stated) |  | inactive: 13.8%
6 | CCOc1ccccc1NC(=O)CSc1nnc2[nH]c(=O)cc(C)n12 |  | inactive: 5.31%
7 | CCCCn1cc(S(=O)(=O)c2ccc(C)cc2)c(=O)c2cc(F)c(N3CCCCC3)cc21 |  | inactive: 6.81%
8 | CC(C)(C)OC(=O)N1CCC(c2c(C(=O)NCc3ccccc3)cnn2-c2cccc(F)c2)CC1 |  | inactive: 4.78%
9 | CCOC(=O)c1cnc2cc(C(F)(F)F)ccc2c1Nc1cc(C)ccc1OC |  | inactive: 1.56%
10 | CCOC(=O)c1ccc(NC2=CC(c3ccc(OCC)cc3)N(c3ccc(C(=O)OCC)cc3)C2=O)cc1 (configuration not stated) |  | inactive: -7.13%
11 | Cc1ccc(-c2nc(CCNC(=O)c3ccc(C)c(C)c3)cs2)cc1 |  | inactive: -2.62%
12 | COc1ccc(C)cc1NC(=O)c1ccc(NS(=O)(=O)c2c(C)noc2C)cc1 |  | inactive: 4%
13 | CCC(C(=O)Nc1cccc(Cl)c1C)n1nc(C)c2sc3ccccc3c2c1=O (configuration not stated) |  | inactive: -3.17%
14 | COc1ccc(-c2noc(CN(C)S(=O)(=O)c3c(C)cc(C)cc3C)n2)cc1OC |  | inactive: -8.48%
15 | CC(=O)N1c2ccccc2C(=O)C1N1CCN(c2ccccc2F)CC1 (configuration not stated) |  | inactive: 6.83%
16 | Cc1ccc(S(=O)(=O)c2c(O)cc(C)c(NS(=O)(=O)c3ccc(Br)cc3)c2C)cc1 |  | inactive: 12.7%
17 | Cc1oc(-c2ccc(Cl)cc2)nc1CN1CCCC(C(=O)NCCc2ccc(Cl)cc2)C1 (configuration not stated) |  | inactive: 4.08%
18 | COCCCNC(=O)C1CCN(Cc2cc3ccccc3n2Cc2ccccc2C)CC1 | inactive | 
19 | O=C(CSc1nnc(-c2ccccc2Cl)o1)N1CCCc2ccccc21 |  | inactive: -28.2%
20 | COc1ccc(NC(=O)c2c(NCc3cccs3)sc3c2CCC(C)C3)c(OC)c1 (configuration not stated) |  | inactive: -1.86%
21 | CC(=O)N1CCc2cc(Br)cc(S(=O)(=O)CCC(=O)N3CCN(c4ccc(F)cc4)CC3)c21 |  | inactive: 1.54%
22 | Cc1nn(C)c2c1c(C(F)(F)F)cc(=O)n2C(C)C(=O)Nc1ccccc1F (configuration not stated) | inactive | 
23 | COc1ccc(S(=O)(=O)NCC(c2cccs2)S(=O)(=O)c2ccccc2)cc1OC (configuration not stated) | inactive | 
24 | COc1ccc(-c2nnc(SCC(=O)Nc3cccc(C(F)(F)F)c3)s2)cc1 |  | inactive: -2.99%

Row | Compound | outcome | activity change, negative = inhibition
25 | CCOc1ccc(C(=O)c2cn(CC(=O)Nc3ccc(Cl)cc3)c3cc4c(cc3c2=O)OCO4)cc1 | inactive | 
26 | Cc1c(C(=O)N(Cc2ccccc2F)C2CCS(=O)(=O)C2)oc2ccccc12 (configuration not stated) | inactive | 
27 | COc1cc(/C=C/c2nc(C#N)c(N3CCN(C)CC3)o2)cc(OC)c1OC | inactive | 
28 | Cc1ccc(CN2CCC(CNC(=O)c3cnn(-c4ccccc4Cl)c3C3CCN(C(=O)OC(C)(C)C)CC3)CC2)cc1 |  | inactive: -21.5%
29 | COc1ccc(Cl)c2sc(NC(=O)c3ccc(S(=O)(=O)N4CCOCC4)cc3)nc12 |  | inactive: -3.7%
30 | CCc1ccc(NC(=O)Cn2c(=O)n(-c3ccc(Cl)c(Cl)c3)c(=O)c3c(C)c(C)sc32)cc1 |  | inactive: 1.52%
31 | Cc1c(-c2nc(-c3ccccc3)no2)nnn1-c1ccc(F)c(Cl)c1 |  | inactive: 4.28%
32 | COCCNC(=O)c1cnc2sc(N3CCCCC3)nn2c1=O |  | inactive: 10.8%
33 | Cc1ccc(Cn2c(SCc3ccc(C(=O)NC4CCCCC4)cc3)nc3ccncc32)cc1 |  | inactive: 5.44%
34 | CSc1cccc(NC(=O)C2CCN(c3nc4ccccc4[nH]3)CC2)c1 | inactive | 
35 | CN(C(=O)c1ccc2c(c1)N(Cc1cccc(Cl)c1)C(=O)c1ccccc1S2(=O)=O)C1CCCCC1 |  | inactive: -2.84%
36 | COc1ccc(NC(=O)COCc2cc(-c3ccc4c(c3)OCO4)on2)cc1 |  | inactive: 2.75%
37 | CCc1ccc(N2C(=O)CSC23C(=O)N(Cc2ccc(C)cc2)c2ccccc23)cc1 (configuration not stated) | inactive | 
38 | O=c1c(-c2ccc(Cl)cc2)c(C(F)(F)F)oc2c(CN3CCCCC3)c(O)ccc12 |  | inactive: 26.6%
39 | CCCC(CCC)C(=O)Nc1cc(-c2cn3cccnc3n2)ccc1OC | inactive | 
40 | CCOC(=O)C1CCCCN1S(=O)(=O)c1csc(C(N)=O)c1 (configuration not stated) |  | inactive: -1.51%
41 | CCn1cc(C(=O)NCc2ccccc2)c(=O)c2cc(S(=O)(=O)N3CCc4ccccc4C3)ccc21 |  | inactive: -9.35%
42 | COc1cc(C(c2c(C)[nH][nH]c2=O)c2c(C)[nH][nH]c2=O)ccc1OC(=O)c1cccc(C)c1 | inactive | 
43 | O=C(c1ccc2c(c1)CCCC2)N1CCN(c2nc3c(F)cccc3s2)CC1 |  | inactive: 17.1%
44 | Cc1ccccc1Nc1c(-c2ccc(Cl)s2)nc2cccc(C)n12 |  | inactive: -3.8%
45 | O=C(CSc1nc2c(c(=O)[nH]1)CCC2)Nc1ccccc1C(F)(F)F |  | inactive: -1.41%
46 | COc1ccc(S(=O)(=O)c2c(C)c(NS(=O)(=O)c3ccccc3)cc(C)c2O)cc1 |  | inactive: 6.71%
47 | COc1ccc(Cn2cc(C(=O)c3ccc(C)cc3)c(=O)c3cc(OC)c(OC)cc32)cc1 |  | inactive: -5.32%
